± gives the standard deviation of the averaged measurements. Whole data set: some 33,000 sequences, median “E-score (dimensionless, -0.5 to 0.5)” near -0.049, cut for the highest 2% near 0.37. The list shows a part of the results.
System: T1, PmTbr T-box DNA-binding domain (GST fusion)
T1 sequence: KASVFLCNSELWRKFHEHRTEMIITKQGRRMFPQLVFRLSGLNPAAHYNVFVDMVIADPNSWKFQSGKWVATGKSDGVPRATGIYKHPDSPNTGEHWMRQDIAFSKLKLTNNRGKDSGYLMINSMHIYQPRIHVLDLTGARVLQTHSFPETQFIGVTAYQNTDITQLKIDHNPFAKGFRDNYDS
Assay: PBM E-score of 8-mer (E-score (dimensionless, -0.5 to 0.5)); Tbr is Tbrain of the sea star Patiria miniata (Pm) or the sea urchin Strongylocentrotus purpuratus (Sp); higher = stronger binding preference; most listed sequences are background and not binding sites
Conditions: the construct has about 5 more residues each side
How it was run: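 Expression of GST-fused Tbr T-box DNA-binding domains, each holding the full T-box plus roughly five flanking residues, was carried out in BL21 E. coli at 20 °C, with purification by glutathione affinity chromatography. Universal Agilent arrays made double-stranded by primer extension were incubated with the protein at 200 nM in PBS (pH 7.5), then scanned and quantified. All ungapped 8-mers were scored from probe intensities, and each received an enrichment E-score from the Universal PBM Analysis Suite, averaged over duplicate arrays.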

| Sequence | PBM E-score of 8-mer |
| --- | --- |
| AACCGATT | -0.0639 ± 0.011 |
| CGAACCAC | -0.0517 ± 0.072 |
| GAGTAATC | 0.0289 ± 0.036 |
| AAAATGTT | -0.26 ± 0.032 |
| GTAAATCA | 0.0107 ± 0.017 |
| GCTGGACC | -0.305 ± 0.095 |
| ATGTATCA | 0.165 ± 0.016 |
| AGAATCAG | -0.271 ± 0.061 |
| CAGGCATA | -0.204 ± 0.012 |
| GATAGCAC | 0.3558 ± 0.0009 |
| GACTGCTC | -0.189 ± 0.0021 |
| CGGAACAG | -0.0341 ± 0.0021 |
| GAAGCCGC | 0.0884 ± 0.0025 |
| TCCCACCA | 0.0909 ± 0.011 |
| AAGTACGA | -0.0268 ± 0.021 |
| GGGACGGA | -0.192 ± 0.044 |
| CACACTAA | 0.241 ± 0.1 |
| GTGAGCGA | 0.0746 ± 0.0075 |
| AGGCTGAA | -0.124 ± 0.018 |
| CCGTCTCC | -0.1972 ± 0.00052 |
| CAGGAGCG | -0.107 ± 0.02 |
| AAGGGTGA | 0.19 ± 0.0034 |
| GACCGTGC | -0.0323 ± 0.021 |
| ACTCGTAT | 0.0291 ± 0.0037 |
| AGAGACCC | -0.168 ± 0.05 |

| Sequence | PBM E-score of 8-mer |
| --- | --- |
| ACTTAACT | 0.0692 ± 0.0023 |
| CAATGGAC | -0.0519 ± 0.011 |
| CTCGGGCC | -0.147 ± 0.047 |
| CTGGGCTC | -0.2693 ± 0.00028 |
| GAGCGAAA | 0.077 ± 0.028 |
| CCCAGACC | 0.0363 ± 0.0064 |
| CGAGTCCA | -0.145 ± 0.013 |
| ATTTAGCG | 0.251 ± 0.038 |
| ACCACAAC | 0.0895 ± 0.082 |
| CCGCCCAG | 0.0652 ± 0.03 |
| GACTGCTA | -0.0203 ± 0.018 |
| ACTGCATA | 0.00104 ± 0.047 |
| ACAACCAA | -0.0472 ± 0.0033 |
| GAGCATAC | -0.012 ± 0.086 |
| AAAGCTTA | 0.0234 ± 0.01 |
| CGAATTCC | -0.164 ± 0.079 |
| AGTCCCAC | 0.00665 ± 0.0034 |
| ATGCAATA | -0.341 ± 0.0082 |
| TCACTTCA | 0.186 ± 0.021 |
| GCAACAAC | 0.0808 ± 0.019 |
| CGAAATAA | 0.233 ± 0.009 |
| AGCACCGG | 0.0404 ± 0.045 |
| GGTGTAGA | 0.341 ± 0.011 |
| GCCTGGCA | 0.182 ± 0.023 |
| AATAAAAT | -0.0375 ± 0.16 |

| Sequence | PBM E-score of 8-mer |
| --- | --- |
| ATCTCCAC | -0.00808 ± 0.021 |
| AAGCGTTC | 0.00655 ± 0.0066 |
| GATTCCCA | 0.0419 ± 0.025 |
| AGACATCT | -0.225 ± 0.02 |
| AGCATCCT | -0.0489 ± 0.021 |
| AGACAACA | 0.153 ± 0.0063 |
| TCTCTCAA | 0.104 ± 0.02 |
| ACAAATAT | 0.102 ± 0.071 |
| GGAGCGTA | -0.187 ± 0.047 |
| ATTAGTCC | -0.29 ± 0.097 |
| AAGACACC | 0.3306 ± 0.0024 |
| AAACTAAC | 0.239 ± 0.05 |
| ACTCGTTA | 0.148 ± 0.012 |
| CTGGTAAG | -0.0318 ± 0.058 |
| ACATATTA | -0.131 ± 0.051 |
| AGGTTTGA | 0.0543 ± 0.0026 |
| AAGAGGAA | -0.204 ± 0.07 |
| ATGTGTGG | 0.3184 ± 0.0012 |
| GGCGGTAC | 0.0877 ± 0.056 |
| GATGCGCA | 0.0235 ± 0.013 |
| TCAGCGCA | -0.015 ± 0.075 |
| CTAGAATC | -0.0716 ± 0.089 |
| GCTTGGCC | -0.192 ± 0.015 |
| CTGTCACC | 0.428 ± 0.013 |
| CTTTAAAG | 0.116 ± 0.04 |

| Sequence | PBM E-score of 8-mer |
| --- | --- |
| CATGTCAG | -0.0539 ± 0.036 |
| GAAGCCTA | -0.215 ± 0.018 |
| AGTGAGCC | -0.107 ± 0.0082 |
| GATCAAAC | 0.0441 ± 0.01 |
| AGTTGACG | 0.153 ± 0.053 |
| CATCACTC | 0.143 ± 0.007 |
| TCAGCCCA | -0.187 ± 0.0087 |
| CACTAACA | 0.288 ± 0.012 |
| ATCGTCAT | -0.0319 ± 0.033 |
| ACACGAAC | -0.0434 ± 0.016 |
| CGTTTCAC | 0.132 ± 0.07 |
| CCTTCAAC | -0.183 ± 0.12 |
| CCCGTACG | -0.19 ± 0.02 |
| ACGACTGG | -0.0319 ± 0.061 |
| CCTGCCTC | 0.0822 ± 0.034 |
| CGGGGCAA | -0.147 ± 0.097 |
| AGACTATA | -0.0796 ± 0.016 |
| AATTTCCT | -0.0748 ± 0.0029 |
| CAGGATCC | -0.177 ± 0.018 |
| TTAGAGAA | -0.103 ± 0.055 |
| CACGGACG | -0.0988 ± 0.092 |
| CGCTTGCC | 0.0749 ± 0.038 |
| CGACGTCA | 0.0829 ± 0.024 |
| CAATTAAA | -0.0976 ± 0.069 |
| AGTAAACC | -0.268 ± 0.015 |

| Sequence | PBM E-score of 8-mer |
| --- | --- |
| CGGACACA | 0.106 ± 0.11 |
| ACCGAAGT | 0.0446 ± 0.06 |
| GGGAGGAC | -0.279 ± 0.058 |
| ATGCCTCC | -0.392 ± 0.0059 |
| CCCTCAGA | 0.0287 ± 0.078 |
| AATAGTCC | -0.174 ± 0.04 |
| GAACCCCC | -0.16 ± 0.03 |
| AAAAAGTA | -0.0122 ± 0.042 |
| CCCTTTAC | -0.0272 ± 0.088 |
| AACAGTAA | -0.0744 ± 0.13 |
| AATCTGCG | 0.0216 ± 0.044 |
| ACTAGAGT | -0.0756 ± 0.027 |
| ACAGCTCT | 0.197 ± 0.025 |
| CTCTAGAG | -0.287 ± 0.016 |
| ACTGTTAA | 0.21 ± 0.045 |
| AATGGATA | -0.201 ± 0.075 |
| ACGCCCGC | 0.126 ± 0.062 |
| AACTTTCG | 0.0665 ± 0.036 |
| CAACGATG | 0.0658 ± 0.039 |
| GATGACAC | 0.36 ± 0.02 |
| CATCGTCA | 0.157 ± 0.002 |
| GTGGGCCA | -0.191 ± 0.031 |
| GTTCAGCA | 0.127 ± 0.002 |
| AGGAAAAG | -0.104 ± 0.028 |
| CCCTCTGA | -0.181 ± 0.012 |

| Sequence | PBM E-score of 8-mer |
| --- | --- |
| GTCTGTCA | 0.105 ± 0.025 |
| ATCGAGGC | -0.106 ± 0.086 |
| ACCTGGTG | 0.2001 ± 0.0019 |
| AAAGGAGT | -0.0983 ± 0.0027 |
| GACTGAAC | -0.193 ± 0.095 |
| CGTCAGGA | 0.18 ± 0.04 |
| GATGTACA | -0.0998 ± 0.024 |
| AATCGCGG | 0.0943 ± 0.019 |
| GGTCCAAC | -0.179 ± 0.037 |
| CACCTGCC | 0.406 ± 0.021 |
| ACAGAATC | 0.136 ± 0.094 |
| AGATGTAT | -0.0375 ± 0.13 |
| TATATTAA | -0.171 ± 0.065 |
| ACTGCGAC | 0.0881 ± 0.0041 |
| ACCGCTAG | 0.0269 ± 0.03 |
| AAACGAGG | -0.14 ± 0.02 |
| TAACTCGA | -0.184 ± 0.0027 |
| AACTTGTC | 0.34353 ± 0.00012 |
| CAGTAGCG | 0.206 ± 0.055 |
| CTAGGTAA | -0.173 ± 0.055 |
| ACACGTGA | 0.292 ± 0.017 |
| ACGCATTG | 0.123 ± 0.017 |
| AACGCGAT | 0.203 ± 0.012 |
| ATTAGAAT | -0.178 ± 0.014 |
| CGCCAGAG | -0.0266 ± 0.0061 |

| Sequence | PBM E-score of 8-mer |
| --- | --- |
| CTGCAAAA | 0.0952 ± 0.052 |
| ATTACAGC | -0.0203 ± 0.0081 |
| CAGAACCA | -0.232 ± 0.018 |
| CCGAGATC | -0.227 ± 0.026 |
| AAAAGATG | -0.119 ± 0.036 |
| GATCGTAA | -0.0965 ± 0.021 |
| CCCAACTC | -0.0345 ± 0.098 |
| CAAGGTTC | 0.0603 ± 0.055 |
| AAAACCTT | -0.155 ± 0.046 |
| GACAAGAA | 0.01 ± 0.027 |
| CATGGGCC | -0.27 ± 0.036 |
| GACGTCGC | 0.0882 ± 0.036 |
| TACCAGTA | -0.355 ± 0.06 |
| ATATCGGC | -0.0843 ± 0.036 |
| CTATCCTC | -0.198 ± 0.037 |
| GGAAGTAC | -0.303 ± 0.038 |
| GTGCTGAA | 0.282 ± 0.022 |
| ACCGACGA | 0.0977 ± 0.038 |
| GTCCCGAC | -0.0297 ± 0.019 |
| CATTAGGA | -0.193 ± 0.0042 |
| GAAGACTC | -0.199 ± 0.022 |
| TATTAAAA | 0.0217 ± 0.078 |

Reference: the supplement of paper PMC4166925
